Test results published in PubChem BioAssay AID1476 (National Center for Advancing Translational Sciences (NCATS), 2009).
Hit rate of the full screen: of about 200,000 compounds, about 4,500 (2.2%) were called active. Inconclusive means that the source gave no clear call. Such entries were picked first, then a sample of the others. The call rests on the fitted dose curve; in most records, active means well fitted inhibition curve with a large enough effect; inconclusive means small, poorly fitted or top-dose-only effect, or effect the other way; inactive means flat fitted curve, though single readings scatter. Where the call is inconclusive, the potency comes from a doubtful curve fit.

Biological target: Cruzipain (Trypanosoma cruzi) (UniProt P25779)
Sequence of UniProt P25779 (P25779 whole entry, looked up): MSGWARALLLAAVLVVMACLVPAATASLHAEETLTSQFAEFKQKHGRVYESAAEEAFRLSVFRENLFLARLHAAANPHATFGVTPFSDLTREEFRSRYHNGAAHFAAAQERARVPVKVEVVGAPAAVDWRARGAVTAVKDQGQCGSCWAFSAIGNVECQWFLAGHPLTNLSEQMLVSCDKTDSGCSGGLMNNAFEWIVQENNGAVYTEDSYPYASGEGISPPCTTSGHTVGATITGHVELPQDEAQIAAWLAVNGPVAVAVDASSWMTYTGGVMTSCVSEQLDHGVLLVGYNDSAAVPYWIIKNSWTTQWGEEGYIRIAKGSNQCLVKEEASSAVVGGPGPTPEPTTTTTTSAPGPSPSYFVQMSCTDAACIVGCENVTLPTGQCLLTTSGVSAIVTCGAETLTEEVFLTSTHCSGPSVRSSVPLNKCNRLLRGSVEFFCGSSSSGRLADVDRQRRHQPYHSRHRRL
Assay: qHTS Assay for Promiscuous and Specific Inhibitors of Cruzain (without detergent); further: nearly all actives have a fitted effect of over 40% in size;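 on max response, negative = inhibition: plate controls were enzyme without inhibitor for no effect and buffer without enzyme for full effect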
Conditions: purified cruzain, Z-FR-AMC fluorescence, no detergent
Outline: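 Detergent-free condition (0.00005% Triton X-100) in acetate buffer pH 5.5 with DTT. 1.5 nM enzyme and compound were pre-mixed 15 min, then 2 uM Z-FR-AMC substrate added; reaction progress from fluorescence change between first and third reads (60 s).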
Potency means the concentration at half of the fitted maximal effect; tags describe the fitted curve by direction and shape.

SMILES	Potency	max response, negative = inhibition
COC(=O)[C@@]1(Cc2ccccc2)[C@H]2c3cc(C(=O)N4CCCC4)n(Cc4ccc(C)o4)c3C[C@H]2CN1C(=O)c1ccccc1	inconclusive: 25.1 µM [activator, partial curve]	–
Cc1oc2ncn(C)c(=O)c2c1C(=O)NCCCN1CCCCC1C (configuration not stated)	–	inactive: 4.09%
CC(=O)c1cccc(NC(=O)Nc2nnc(N3CCCC3)s2)c1	inconclusive: 25.1 µM [activator, single point]	–
CC(=O)c1cc(-c2ccc(F)cc2)n(CC(=O)NC2CCC(C)CC2)c1C (configuration not stated)	–	inactive: -10.5%
CCc1ccc(NC(=O)CN2CCc3ccccc3C2)cc1	–	inactive: -9.65%
COc1ccc(-n2c(=O)c(-c3cccs3)nc3cnc(N4CCNCC4)nc32)cc1	–	inactive: -9.29%
O=C(Nc1nc(-c2ccc(Cl)cc2Cl)cs1)c1ccc(OCC2CCCO2)cc1 (configuration not stated)	inconclusive: 39.8 µM [inhibitor, single point]	–
Cc1ccc(Nc2nc3ccccc3c3nnc(C)n23)c(C)c1	inconclusive: 39.8 µM [activator, single point]	–
COc1ccc(-c2cc3nc(C)c(CCC(=O)N4CCN(c5ccc(F)cc5)CC4)c(C)n3n2)c(OC)c1	inconclusive: 5.01 µM [activator, full curve]	–
O=C(Nn1c(O)c(C=C2N=c3ccccc3=N2)sc1=S)c1ccccc1	–	inactive: -6.61%
O=C(c1cnccn1)N1CCC2(CCCN(c3cccc(-c4ccccc4)c3)C2)CC1	inconclusive: 31.6 µM [activator, single point]	–
COc1cccc(Nc2sc(C(=O)c3ccc(Cl)cc3)c(N)c2C(=O)NCc2ccc(C)cc2)c1	inconclusive: 3.16 µM [inhibitor, full curve, poor fit]	–
COc1ccc(Cl)cc1NC(=O)c1ccc2c(c1)CCN2S(C)(=O)=O	inconclusive: 39.8 µM [activator, single point]	–
COc1ccc(OC)c(NC(=O)C(=O)/C=C(\O)c2cc(OC)ccc2OC)c1	inconclusive: 31.6 µM [activator, single point]	–
Cn1cccc1C(=O)N1CCC[C@@]2(CCN(c3ccccc3)C2)C1	inconclusive: 25.1 µM [activator, single point]	–
CC(OC(=O)c1cccc(N2C(=O)c3ccccc3C2=O)c1)C(=O)Nc1ccc(N(C)C)cc1 (configuration not stated)	inconclusive: 39.8 µM [inhibitor, single point]	–
O=C(NCCc1ccccc1)C1CCN(Cc2cc3ccccc3n2Cc2cccc(Cl)c2)CC1	inconclusive: 39.8 µM [inhibitor, single point]	–
